Some of the results follow.
Test system: S. aureus RN4220
Assay: growth inhibition call (relative growth <= 0.2)
Settings: 50 µM

Growth inhibition call, inactive:
COc1cc(CO)cc(I)c1O[C@H]1C=C(C(=O)NCCO)C[C@@H](NC[C@@H]2CCCO2)[C@@H]1O, CC(=O)N1CCC(N)CC1, COc1ccc(CNC(=O)c2cc3c(c(-c4cccc(-c5ccc(C#N)cc5)c4)n2)[C@H](CCO)N([S@@](=O)C(C)(C)C)C3)cc1, COc1cc(OC)cc(C(=O)OCCN2CCCN(CCOC(=O)c3cc(OC)cc(OC)c3)CC2)c1, COc1ccc(-c2csc(C(C#N)=C3CCCCC3)n2)cc1, C[C@@H]1CN([C@H](C)CO)C(=O)c2cc(NC(=O)CCC(F)(F)F)ccc2O[C@H]1CN(C)S(=O)(=O)c1cn(C)cn1, C[C@@H]1CN([C@@H](C)CO)C(=O)Cc2cc(NC(=O)CCC(F)(F)F)ccc2O[C@@H]1CN(C)S(C)(=O)=O, CC(=O)Nc1c(C)[nH]c2ncnn2c1=O, C[C@@H]1CN([C@@H](C)CO)C(=O)c2cc(NS(C)(=O)=O)ccc2O[C@@H](C)CCCCO[C@@H]1CN(C)S(=O)(=O)c1ccc(F)cc1, Cn1nccc1-c1cccc(CN)c1, O=C(C[C@H]1CC[C@@H](NC(=O)Nc2ccc3c(c2)OCO3)[C@H](CO)O1)NCCCN1CCOCC1, Oc1cc(O)cc(O)c1, C[C@@H]1CN([C@@H](C)CO)C(=O)CCCn2cc(nn2)CO[C@@H]1CN(C)S(=O)(=O)c1ccc(Cl)cc1, NCc1cccc(-c2nccs2)c1, CCO[C@H]1OC(C(=O)N2CCN(Cc3ccccc3)CC2)=C[C@@H](c2csc3ccccc23)[C@@H]1CCCOC(=O)NCCCCCC(=O)NO, O=C(c1cccs1)N1c2ccccc2Sc2ccccc21, C[C@H]1CN([C@@H](C)CO)C(=O)c2ccccc2-c2ccccc2CO[C@H]1CN(C)C(=O)Nc1cccc(Cl)c1Cl, NCc1nc(-c2ccccc2)no1, Cc1ccc(S(=O)(=O)Nc2ccc3c(c2)C(=O)N([C@H](C)CO)C[C@H](C)[C@H](CN(C)C(=O)Cc2ccccc2)OCCCC[C@@H](C)O3)cc1, NC[C@H]1CN(Cc2ccc(F)cc2)CCO1, C[C@H]1CN([C@@H](C)CO)S(=O)(=O)c2ccc(C#Cc3cccc(F)c3)cc2O[C@H]1CN(C)CC1CC1, CN(C)C(=O)C[C@H]1CC[C@@H](NC(=O)C2CC2)[C@H](CO)O1, C[C@H]1CCCCO[C@H](CN(C)S(C)(=O)=O)[C@@H](C)CN([C@@H](C)CO)C(=O)c2cc(N(C)C)ccc2O1, COc1ccc(S(=O)(=O)Nc2cccc3c2O[C@@H](CN(C)Cc2ccc(Cl)c(Cl)c2)[C@H](C)CN([C@H](C)CO)C3=O)cc1, CC#CCO[Si](C#CCCCCCC)(C(C)C)C(C)C, C[C@]1(C(=O)NCC(F)(F)F)c2ccccc2C(=O)N(Cc2cc(C(F)(F)F)cc(C(F)(F)F)c2)[C@H]1c1ccc(CO)cc1, C[C@H](CO)N1C[C@H](C)[C@H](CN(C)S(=O)(=O)c2ccc(F)cc2)Oc2ccc(NS(=O)(=O)c3cn(C)cn3)cc2C1=O, C[C@H]1CN([C@@H](C)CO)C(=O)Cc2cc(NC(=O)Nc3ccc(F)cc3)ccc2O[C@H]1CN(C)Cc1ccc(Cl)c(Cl)c1, C[C@@H]1CCCCO[C@H](CN(C)S(=O)(=O)c2cccs2)[C@@H](C)CN([C@@H](C)CO)C(=O)c2cc(NC(=O)Nc3ccc4c(c3)OCO4)ccc2O1, C[C@H]1CN([C@@H](C)CO)C(=O)c2cc(NS(=O)(=O)c3cccs3)ccc2O[C@H]1CN(C)S(C)(=O)=O, COc1ccc(NC(=O)Nc2cccc3c2O[C@H](CN(C)C(=O)Nc2cccc4ccccc24)[C@@H](C)CN([C@H](C)CO)C3=O)cc1, Cc1ccc(S(=O)(=O)Nc2ccc3c(c2)C(=O)N([C@H](C)CO)C[C@H](C)[C@@H](CN(C)C(=O)Nc2c(C)noc2C)OCCCC[C@@H](C)O3)cc1, Nc1nc2nc[nH]c2c(=S)[nH]1, CO[C@@H]1CN(C)C(=O)c2cc(NC(=O)Nc3ccccc3)ccc2OC[C@@H](C)N(C(=O)CN(C)C)C[C@H]1C, C[C@@H]1CN([C@H](C)CO)C(=O)c2cccc(NC(=O)Nc3ccc(F)cc3)c2O[C@H]1CN(C)S(=O)(=O)c1cn(C)cn1
